Drawing on PubChem BioAssay AID485344 (National Center for Advancing Translational Sciences (NCATS), 2010), this text covers inhibition for 94 molecules.

Out of some 340,000 compounds screened, about 6,900 (2%) were called active. Cut-off read from the data, not from the text of the source: active = inhibition above about 30%; inactive = below that, where a call was filed. This is a selection; strong and weak results do not stand in their true shares. The source gives no active or inactive call for entries shown without one.

Chain of UniProt P14416 (P14416 whole entry, looked up): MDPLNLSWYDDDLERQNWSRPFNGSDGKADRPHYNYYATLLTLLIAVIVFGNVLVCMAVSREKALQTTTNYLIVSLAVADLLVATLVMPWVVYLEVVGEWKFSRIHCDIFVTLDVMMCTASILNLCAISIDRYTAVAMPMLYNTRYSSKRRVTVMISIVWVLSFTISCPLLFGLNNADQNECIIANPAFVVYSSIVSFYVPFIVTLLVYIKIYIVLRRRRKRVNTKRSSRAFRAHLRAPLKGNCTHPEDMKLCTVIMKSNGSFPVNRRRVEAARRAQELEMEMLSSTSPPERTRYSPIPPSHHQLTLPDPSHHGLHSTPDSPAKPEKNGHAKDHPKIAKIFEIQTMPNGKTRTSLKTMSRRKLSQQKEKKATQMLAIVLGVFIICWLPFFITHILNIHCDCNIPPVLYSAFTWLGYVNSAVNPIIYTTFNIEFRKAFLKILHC

In the assay the target is D(2) dopamine receptor (Homo sapiens) (UniProt P14416). The assay is described as follows: HTS Assay for Allosteric Antagonists of the Human D2 Dopamine Receptor: Primary Screen for Antagonists. Note: 0% is about no effect. The settings on record: HEK293 TREx D2 cells, calcium flux, dopamine EC80; at 10 µM; stronger effect = higher value. Put shortly:
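Measurement of antagonist activity uses fluorescent calcium dye in inducible HEK293 T-REx D2 cells: 10 s baseline, compound addition with 180 s read, EC80 dopamine addition with a further 180 s read.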
Broadly, the inhibition is the change of the read-out against control, counted positive when it falls. As to `CC(C)(C)C1CCc2c(sc(NC(=O)c3cccc(Cl)c3)c2C(=O)NCc2ccco2)C1` (centres undefined), the inhibition was found to be 19.5%.
As for `O=C1CC(c2ccc(Cl)cc2)CC(O)=C1C=NCCN1CCNCC1` (centres undefined), the inhibition was active: 53.1%.
The figure for `CC(C)OCCCn1c(=O)c2ccccc2n2c(-c3ccccc3)nnc12` is 2.24%; for `Cc1ccc(-c2cc(C(=O)N3CCN(S(=O)(=O)c4ccc(Br)cc4)CC3)[nH]n2)c(C)c1` it is -7.06%; for `O=C(Cc1ccccc1)Nc1sc2c(c1C(=O)Nc1cccc(Cl)c1)CCCCC2` it is 2.65%.
Consider `CCc1nn2c(=O)cc(COC(=O)Cc3ccccc3)nc2s1`, for which the inhibition turned out to be 1.96%.
The same measure for `CCc1ccc(S(=O)(=O)c2cn(Cc3ccccc3)c3cc(N4CCCC4)c(F)cc3c2=O)cc1`: 1.73%.
`Clc1ccc2c(c1)-n1cc(-c3ccccc3)nc1CO2`: the inhibition stood at 16.5%.
The same measure for `COc1ccc(Cl)cc1S(=O)(=O)Nc1ccc2[nH]c(=O)[nH]c2c1`: -15.1%; for `Cc1ccc(N2CC(NC(=O)c3ccccc3C(F)(F)F)CC2=O)cc1C` (centres undefined): -21.1%.
Turning to `Cc1ccc(Cl)cc1N1CCN(C(=O)CCS(=O)(=O)c2cc(Br)cc3c2N(C(=O)C2CC2)CC3)CC1`, the inhibition is -5.06%.
Regarding `COc1ccc(NC(=O)CSc2oc(-c3cccs3)nc2S(=O)(=O)c2ccccc2)c(OC)c1`, the inhibition was -15.7%.
The figure for `Cc1ccc(CCNC(=O)Cn2c(-c3cccs3)cc3ccccc32)cc1` is 7.52%; for `Cc1cccc(CNC(=O)c2cc3cc(S(=O)(=O)N4CCCCC4)ccc3n2C)c1` it is 11%.
The same measure for `O=C(Nc1ccc(C(=O)OCc2cc(=O)n3nc(C4CC4)sc3n2)cc1)c1ccccc1`: -12%; for `COc1ccc(C(C)=O)cc1COC(=O)CSCC(=O)Nc1ccc(C)cc1`: active: 30.5%.
The same measure for `COc1ccc(-c2noc(CC(=O)N(C)c3cccc(C)c3)n2)cc1`: -3.23%.
For the molecule `CCOC(=O)COc1ccc(CC)cc1C(=O)c1ccn2nc(-c3ccc(F)cc3)cc2n1`, the inhibition amounted to 4.5%.
The figure for `Cc1ccc(NC(=O)CN2C=NS(=O)(=O)c3ccccc32)cc1` is 13.2%; for `CCOC(=O)c1cnc2ccc(Br)cc2c1NCCN1CCOCC1` it is -11.3%.
The figure for `C#CCn1c(=NC(=O)c2ccc(S(=O)(=O)N3CCCc4ccccc43)cc2)sc2cc(S(N)(=O)=O)ccc21` is active: 47.5%.
Regarding `O=C(Nc1ccc2c(c1)CCCN2C(=O)c1cccs1)c1ccc(F)c(F)c1`, the inhibition is -11.9%.
Turning to `COc1ccc(C(=O)c2cn(Cc3ccccc3F)c3cc4c(cc3c2=O)OCCO4)cc1OC`, the inhibition is -2.73%.
The same measure for `COc1ccccc1/C=C/c1nc(C#N)c(NC2CCCCC2)o1`: -10.9%.
In the case of `COc1ccc(CNC(=O)CCCn2nc(C)n3c(cc4sccc43)c2=O)cc1`, the inhibition was found to be 8.43%.
Regarding `Cc1cc(F)c(F)c(C(=O)N2CCC(C)CC2)c1Cl`, the inhibition is active: 31.8%.
The figure for `COCCn1c(C)cc(O)c(C(c2ccccc2OC)N2CCN(c3ccccc3)CC2)c1=O` (centres undefined) is 4.82%; for `COc1ccc(C(=O)NCCn2cc(SCc3ccc(C(F)(F)F)cc3)c3ccccc32)cc1OC` it is 7.86%.
On to `COc1cccc(CNC(=O)C2CCCN(S(=O)(=O)N(C)c3ccc(F)cc3)C2)c1OC` (centres undefined), for which the inhibition was determined as 2.62%.
Take `Cc1cccc(NC(=O)CSC2=Nc3ccccc3C3=NC(CC(=O)NCc4cccs4)C(=O)N23)c1` (centres undefined): the inhibition came out at 7.68%.
The same measure for `CCc1cccc(NS(=O)(=O)c2ccc3c(c2)CC(C)N3C(=O)C2CC2)c1` (centres undefined): -5.04%.
The same measure for `CCc1c(C)c2ccc(O)c(CN3CCN(c4ccc(F)cc4)CC3)c2oc1=O`: 4.61%.
In the case of `CCOCN(C(=O)Cn1c(COC)nc2ccccc21)c1c(C)cccc1CC`, the inhibition came out at 6.99%.
Take `COc1ccc(Cl)cc1NC(=O)CSc1nccn1-c1ccc(Cl)cc1`: the inhibition stood at 23.7%.
The figure for `COc1ccc(S(=O)(=O)CCc2nc3ccccc3s2)cc1` is active: 59.1%.
The figure for `COc1ccc(S(=O)(=O)N2Cc3ccccc3CC2C(=O)Nc2cc(Cl)ccc2Cl)cc1` (centres undefined) is 14.2%.
The same measure for `O=C(NC1=NCCS1)c1cccc(S(=O)(=O)N2CCOCC2)c1`: active: 34.5%; for `Cc1ccc(C)c(NC(=O)C2CCN(S(=O)(=O)c3c(C)noc3/C=C/c3cccs3)CC2)c1`: 17.6%; for `Cc1sc2c(c1C)c(=O)n(CCc1ccccc1)c(=O)n2Cc1ccc(C(C)(C)C)cc1`: 1.96%.
On to `COc1ccc(NC(=O)C2CSC3c4ccccc4C(=O)N23)cc1` (centres undefined), for which the inhibition is active: 31.6%.
`CCn1c(CNC(=O)c2ccc(OC)cc2)nnc1SCC(=O)Nc1cc(C)ccc1C`: the inhibition was -15.6%.
Consider `Cn1c(/C(C#N)=C/c2ccccc2Br)nc2ccccc21`, for which the inhibition was determined as 10.2%.
On to `COc1ccc(N2CCN(S(=O)(=O)c3ccc4c(c3)C(C(C)C)C(=O)N4)CC2)cc1` (centres undefined), for which the inhibition is -2.12%.
In the case of `Cc1nc2cc(-c3cccc(F)c3)nn2c(C)c1CCC(=O)NCCc1ccccc1`, the inhibition was -1.11%.
The same measure for `CCOC(=O)COc1ccc(-c2nnn(CC(=O)Nc3ccccc3)n2)cc1`: 4.76%; for `Cn1c(=O)c2sccc2n2c(CCCC(=O)Nc3ccc(Oc4ccccc4)cc3)nnc12`: 4.81%.
The figure for `Cc1ccc(C)c(N2CCN(C(=O)c3cc(C)nc4c3c(C)nn4-c3ccccc3)CC2)c1` is 11.6%; for `CCOc1ccc(OCC(=O)Nc2ccc(S(=O)(=O)Nc3cc(C)on3)cc2)cc1` it is -1.93%; for `COc1cc(CN(C(=O)COc2ccc(F)cc2)c2ccccn2)cc(OC)c1OC` it is 16.5%.
`COc1cc(NC(=O)CCN2CCN(CCO)CC2)cc(OC)c1`: the inhibition was 9.27%.
The same measure for `CCc1nn(CC(=O)NCCc2ccc(SC)cc2)c(=O)c2cc3sccc3n12`: -6.31%; for `CCOc1cc(-c2nc(-c3ccc(-c4ccccc4)nc3OCC)no2)cc(OCC)c1OCC`: -20.4%.
The same measure for `COc1cc(OC)c(NC(=O)c2cnn(-c3ccccc3)c2-n2cccc2)cc1Cl`: 4.99%; for `O=C(NCc1ccccc1Cl)c1ccccc1NC(=O)c1nsc2ccccc12`: -25.3%; for `COc1ccc(N2CCN(C(=O)c3cc4c(=O)n(Cc5ccco5)ccc4nc3C)CC2)cc1`: 6.77%.
Take `CCC(=O)N1CCc2cc(Br)cc(S(=O)(=O)Nc3ccccc3C(=O)OC)c21`: the inhibition is 2.04%.
As for `O=C(CSc1nccn1Cc1ccc(Cl)cc1)Nc1nc2ccccc2s1`, the inhibition stood at 4.41%.
In the case of `COCCCNC(=O)c1cc2c(-c3cccc(OC)c3)nn(C)c2s1`, the inhibition turned out to be 0.091%.
The same measure for `Cc1ccccc1CCNC(=O)c1ccc(Cn2c(=O)c3cccn3c3cccnc32)cc1`: 25.6%.
The figure for `CCc1ccc(NC(=O)c2cc(S(=O)(=O)N3CCCC(C)C3)cn2C)cc1` (centres undefined) is -4.09%.
The same measure for `COC(=O)C1=C(C)N(C(C)C)C(=O)C1(NC(=O)c1ccccc1OC)C(F)(F)F` (centres undefined): -3.82%; for `COc1ccccc1CNC(=O)C(=O)NCC(c1ccco1)S(=O)(=O)c1ccc(C)cc1` (centres undefined): -11.9%.
With `CCCCCn1c(CCCNC(=O)c2ccc(Cl)cc2)nc2ccccc21`, the inhibition is -3.84%.
The same measure for `COc1ccc(CNC(=O)CCc2nnc3n(C)c(=O)c4sccc4n23)cc1`: 23.3%; for `COc1ccc(-c2nc(C(=O)Nc3cccc(C(C)=O)c3)nn2-c2ccccc2Cl)cc1`: 1.05%.
The figure for `CCc1ccc(NC(=O)CSc2nc3c(c(=O)[nH]2)CN(Cc2ccc4c(c2)OCO4)CC3)cc1` is 15.1%; for `Cc1ccc(C)c(N2CCN(S(=O)(=O)c3c(C(=O)N4CCC(C)CC4)c(C)n(C)c3C)CC2)c1` it is -13.4%.
Consider `O=C(CCCc1ccccc1)NC1CC(=O)N(c2cccc(F)c2)C1` (centres undefined), for which the inhibition is -18%.
The figure for `CCOC(=O)c1cc2c(=O)n3ccccc3nc2n(C)c1=NC(=O)c1c(-c2c(F)cccc2Cl)noc1C` is 0.689%.
Turning to `CC1(c2ccccc2)NC(=O)N(CC(=O)Nc2ccc(S(=O)(=O)Nc3ncccn3)cc2)C1=O` (centres undefined), the inhibition is active: 50%.
As for `CCOc1ccc(CNC(=O)C2CCN(C(=O)c3ccc(-n4ccc5ccccc54)s3)CC2)cc1`, the inhibition is -8.28%.
The same measure for `CCOc1ccc(Nc2cc(C(=O)NCc3ccccc3Cl)c3ccccc3n2)cc1`: 20.4%; for `Cc1cccc(NC(=O)Cn2c(=O)n(CCCCCC(=O)NCc3ccccc3)c(=O)c3sccc32)c1`: -1.93%.
The figure for `CCOC(=O)N1CCN(C(=O)c2ccc3c(c2)N(Cc2ccccc2F)C(=O)c2ccccc2S3(=O)=O)CC1` is -11.8%; for `O=C(c1ccc(Cl)cc1)N1CCN(CCc2ccncc2)CC1` it is 16.4%; for `CCN(Cc1ccccc1)c1ncnc2c1cnn2-c1ccc(F)cc1` it is 8.84%.
The same measure for `Cc1ccc(-c2nnc(Nc3cccc(Cl)c3)c3ccccc23)cc1S(=O)(=O)N1CCN(C)CC1`: -13.8%; for `Cc1ccc(Cl)cc1N1CCN(S(=O)(=O)c2cn(C)c(C)n2)CC1`: 19.3%; for `CCOc1ccccc1C1C(C(=O)Nc2ccccc2)=C(C)Nc2nc(SCC(=O)c3ccc(C)cc3)nn21` (centres undefined): -1.09%.
As to `COc1ccc(C(=O)c2sc3nc4c(c(C(F)(F)F)c3c2N)CN(C(C)=O)CC4)cc1OC`, the inhibition is 2.73%.
For `Cc1ccc(-c2c3c(=O)n(C)c(=O)n(C)c3c3n2-c2ccccc2NC3c2ccc(C)cc2O)cc1` (centres undefined), the inhibition worked out at 9.65%.
`O=C(c1cc2ccccc2[nH]1)N(Cc1cccnc1)CC1CCCN(C2CCCCC2)C1` (centres undefined): the inhibition was active: 38.8%.
In the case of `COc1ccc(-c2cc(C(=O)N3CCCCC3C)no2)cc1OC` (centres undefined), the inhibition worked out at 0.112%.
The figure for `CCOc1ccc(OCC)c(NC(=O)c2nnn(CC(=O)Nc3cc(Cl)ccc3OC)c2N)c1` is 2.3%; for `COc1ccc(C(=O)NCc2ccc3c(c2)CCN3C(C)=O)c(OC)c1` it is -3.19%.
The same measure for `Cc1ccccc1NC(=O)C1CCN(S(=O)(=O)c2c(C)noc2/C=C/c2ccco2)CC1`: 2.1%.
For `COc1ccc(NC(=O)C2CCCN(c3ncnc4onc(C)c34)C2)cc1OC` (centres undefined), the inhibition was -5.83%.
The figure for `CCC(=O)N1CCc2cc(CNC(=O)c3cccc(N(C)C)c3)ccc21` is -14.3%; for `CCc1ccccc1N1C(=O)CN(S(=O)(=O)CC)CC1(C)C(=O)NC1CCCCC1` (centres undefined) it is -3.8%; for `Cc1ccc(Cn2c(SCc3ccc(C(=O)N4CCCCC4)cc3)nc3ccncc32)cc1` it is -24.6%.
Regarding `CCC(=O)OC1=C(C(C)=O)N(Cc2ccccc2)S(=O)(=O)c2ccccc21`, the inhibition is -6.16%.
The same measure for `CCc1ccccc1NC(=O)Cn1nc(CC)n2c(cc3sccc32)c1=O`: -10.2%; for `Cn1ncc2c(Nc3cccc(F)c3)ncnc21`: -17.2%.
The same measure for `CC[n+]1c(-c2ccc(C)cc2)csc1Nc1c(C)n(C)n(-c2ccccc2)c1=O`: active: 51.5%.
